Measured values reported in PMC12820563.
The other results are listed elsewhere or left out. The list includes weakly bound sequences.

What follows are sequences tested against T1, MBP-FoxP3dN (UniProt Q99JB6) (assay: PD-seq (MBP pull-down with sequencing)). Conditions: 20 mM Tris-HCl pH 7.5, 100 mM NaCl, 1.5 mM MgCl2, 0.4 uM protein, 0.1 uM dsDNA library, 30 min, room temperature, amylose pull-down; high values mean tight binding; double strand, one strand shown.
T1 sequence: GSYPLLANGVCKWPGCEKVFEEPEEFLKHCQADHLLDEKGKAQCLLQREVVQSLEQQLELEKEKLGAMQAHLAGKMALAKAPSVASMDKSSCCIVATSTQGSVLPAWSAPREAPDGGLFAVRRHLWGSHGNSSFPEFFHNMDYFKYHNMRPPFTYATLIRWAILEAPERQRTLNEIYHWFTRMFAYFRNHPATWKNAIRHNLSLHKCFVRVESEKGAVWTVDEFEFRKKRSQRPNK
With “GATGATTGTTCTCCCAGCTGATGAATTATGGCTCTCGAGTAAACAAATTTTCCTAATCTTTCTGTTCAAGCGCCATCTAC” the binding signal (RPM ratio (pull-down/input)) was 0.643.
With “GATGATTGTTCTCCCAGCTGATGAATTCGCGACATCGAGTAAACAAATTTTCCTAATCTTTCTGTTCAAGCGCCATCTAC” the binding signal (RPM ratio (pull-down/input)) was 0.724.
“GATGATTGTTCTCCCAGCTGATGAATTAATCCGGTCGAGTAAACAAATTTTCCTAATCTTTCTGTTCAAGCGCCATCTAC” showed a binding signal (RPM ratio (pull-down/input)) of 0.162.
Sequence “GATGATTGTTCTCCCAGCTGATGAATTACTATCATCGAGTAAACAAATTTTCCTAATCTTTCTGTTCAAGCGCCATCTAC” has a binding signal (RPM ratio (pull-down/input)) of 0.666.
With “GATGATTGTTCTCCCAGCTGATGAATTTACTGAGTCGAGTAAACAAATTTTCCTAATCTTTCTGTTCAAGCGCCATCTAC” the binding signal (RPM ratio (pull-down/input)) was 0.302.
In the case of “GATGATTGTTCTCCCAGCTGATGAATTGAGCTTATCGAGTAAACAAATTTTCCTAATCTTTCTGTTCAAGCGCCATCTAC”, the binding signal (RPM ratio (pull-down/input)) is reported as 1.25.
“GATGATTGTTCTCCCAGCTGATGAATTAGGGACTTCGAGTAAACAAATTTTCCTAATCTTTCTGTTCAAGCGCCATCTAC” gave a binding signal (RPM ratio (pull-down/input)) of 0.523.
“GATGATTGTTCTCCCAGCTGATGAATTGACTTTATCGAGTAAACAAATTTTCCTAATCTTTCTGTTCAAGCGCCATCTAC” was tested, and the binding signal (RPM ratio (pull-down/input)) was 0.608.
Work on “GATGATTGTTCTCCCAGCTGATGAATTCAGTGACTCGAGTAAACAAATTTTCCTAATCTTTCTGTTCAAGCGCCATCTAC” yielded a binding signal (RPM ratio (pull-down/input)) of 0.828.
“GATGATTGTTCTCCCAGCTGATGAATTCAAATTTTCGAGTAAACAAATTTTCCTAATCTTTCTGTTCAAGCGCCATCTAC” was tested, and the binding signal (RPM ratio (pull-down/input)) was 0.27.
“GATGATTGTTCTCCCAGCTGATGAATTGAATATCTCGAGTAAACAAATTTTCCTAATCTTTCTGTTCAAGCGCCATCTAC” gave a binding signal (RPM ratio (pull-down/input)) of 0.605.
In the case of “GATGATTGTTCTCCCAGCTGATGAATTCTCATACTCGAGTAAACAAATTTTCCTAATCTTTCTGTTCAAGCGCCATCTAC”, the binding signal (RPM ratio (pull-down/input)) is reported as 0.405.
For “GATGATTGTTCTCCCAGCTGATGAATTGAAGCGGTCGAGTAAACAAATTTTCCTAATCTTTCTGTTCAAGCGCCATCTAC”, the binding signal (RPM ratio (pull-down/input)) was 0.318.
In the case of “GATGATTGTTCTCCCAGCTGATGAATTATATCCGTCGAGTAAACAAATTTTCCTAATCTTTCTGTTCAAGCGCCATCTAC”, the binding signal (RPM ratio (pull-down/input)) is reported as 0.399.
Work on “GATGATTGTTCTCCCAGCTGATGAATTAATAGGTTCGAGTAAACAAATTTTCCTAATCTTTCTGTTCAAGCGCCATCTAC” yielded a binding signal (RPM ratio (pull-down/input)) of 0.487.
For “GATGATTGTTCTCCCAGCTGATGAATTGCCCCCCTCGAGTAAACAAATTTTCCTAATCTTTCTGTTCAAGCGCCATCTAC”, the binding signal (RPM ratio (pull-down/input)) was 0.434.
For “GATGATTGTTCTCCCAGCTGATGAATTAATGTCGTCGAGTAAACAAATTTTCCTAATCTTTCTGTTCAAGCGCCATCTAC”, the binding signal (RPM ratio (pull-down/input)) was 0.846.
“GATGATTGTTCTCCCAGCTGATGAATTCTCTCATTCGAGTAAACAAATTTTCCTAATCTTTCTGTTCAAGCGCCATCTAC” was tested, and the binding signal (RPM ratio (pull-down/input)) was 0.299.
“GATGATTGTTCTCCCAGCTGATGAATTGACCGCATCGAGTAAACAAATTTTCCTAATCTTTCTGTTCAAGCGCCATCTAC” gave a binding signal (RPM ratio (pull-down/input)) of 0.887.
Work on “GATGATTGTTCTCCCAGCTGATGAATTGTGAATGTCGAGTAAACAAATTTTCCTAATCTTTCTGTTCAAGCGCCATCTAC” yielded a binding signal (RPM ratio (pull-down/input)) of 1.32.
For “GATGATTGTTCTCCCAGCTGATGAATTAAGCCCGTCGAGTAAACAAATTTTCCTAATCTTTCTGTTCAAGCGCCATCTAC”, the binding signal (RPM ratio (pull-down/input)) was 1.27.
“GATGATTGTTCTCCCAGCTGATGAATTATATCATTCGAGTAAACAAATTTTCCTAATCTTTCTGTTCAAGCGCCATCTAC” gave a binding signal (RPM ratio (pull-down/input)) of 1.65.
For “GATGATTGTTCTCCCAGCTGATGAATTGGCATACTCGAGTAAACAAATTTTCCTAATCTTTCTGTTCAAGCGCCATCTAC”, the binding signal (RPM ratio (pull-down/input)) was 0.986.
For “GATGATTGTTCTCCCAGCTGATGAATTTATGGCGTCGAGTAAACAAATTTTCCTAATCTTTCTGTTCAAGCGCCATCTAC”, the binding signal (RPM ratio (pull-down/input)) was 1.37.
Work on “GATGATTGTTCTCCCAGCTGATGAATTCCTACACTCGAGTAAACAAATTTTCCTAATCTTTCTGTTCAAGCGCCATCTAC” yielded a binding signal (RPM ratio (pull-down/input)) of 0.302.
With “GATGATTGTTCTCCCAGCTGATGAATTCACGTGCTCGAGTAAACAAATTTTCCTAATCTTTCTGTTCAAGCGCCATCTAC” the binding signal (RPM ratio (pull-down/input)) was 0.404.
Sequence “GATGATTGTTCTCCCAGCTGATGAATTCCGCAAATCGAGTAAACAAATTTTCCTAATCTTTCTGTTCAAGCGCCATCTAC” has a binding signal (RPM ratio (pull-down/input)) of 0.692.
“GATGATTGTTCTCCCAGCTGATGAATTACGATGCTCGAGTAAACAAATTTTCCTAATCTTTCTGTTCAAGCGCCATCTAC” showed a binding signal (RPM ratio (pull-down/input)) of 1.
Work on “GATGATTGTTCTCCCAGCTGATGAATTCCATTCCTCGAGTAAACAAATTTTCCTAATCTTTCTGTTCAAGCGCCATCTAC” yielded a binding signal (RPM ratio (pull-down/input)) of 0.41.
For “GATGATTGTTCTCCCAGCTGATGAATTACAGTCGTCGAGTAAACAAATTTTCCTAATCTTTCTGTTCAAGCGCCATCTAC”, the binding signal (RPM ratio (pull-down/input)) was 0.651.
With “GATGATTGTTCTCCCAGCTGATGAATTAGCCTTATCGAGTAAACAAATTTTCCTAATCTTTCTGTTCAAGCGCCATCTAC” the binding signal (RPM ratio (pull-down/input)) was 0.706.
